Here are results for two molecules from patent publication EP4684807A1, “LINKER AND USE THEREOF IN LIGAND DRUG CONJUGATE” (priority 2023, dated 2024).

A short description of the data set: Plasma stability test, free drug (MMAE) by LC-MS/MS. In kind it is in vitro ADME. The note with it: human plasma, 37°C, 100 µg/mL. The protocol:
Free drugs were analyzed by LC-MS/MS.
The free drug standard was prepared as a 1 mg/mL stock solution in DMSO. The free drug stock solution was diluted in blank plasma matrix by gradient dilution to prepare a standard curve with concentrations ranging from 1.0 to 100 ng/mL, as well as QC samples at three concentration levels, namely 3.0 ng/mL (LQC), 40.0 ng/mL (MQC), and 75.0 ng/mL (HQC).
100 µL of each of the study sample, standard curve sample, and QC sample were mixed with acetonitrile. The samples were thoroughly mixed by vortex for 1 minute and centrifuged in a centrifuge at 12000 rpm for 5 minutes to precipitate proteins. The supernatant was transferred to a 96-well plate for LC-MS/MS analysis.
LC-MS instrument detection method for free drugs
Data were acquired and analyzed using ChromeleonTM software.

B1: ADC-1D: "control ADC-1D" incubated in human plasma beside ADC-20C (conjugate)
heavy: QVQLQQPGTEVVKPGASVKLSCKASGFTFPLYWMHWVRQRPGRGLEWIGRIIPIFGHTKYNEKFKNKATLTADESSSTAYMELRSLTSDDSAVYYCARGGYYYYPREGFLDYWGQGTSVTVSS[not shown - human IgG1 constant region]
light: DIVMTQSPASLSVSPGERASISCRSSQSVDYSGDSYMNWYQQKPGQSPRLLIYAASDRESGVPDRFSGSGSGTDFTLKISRVEEEDAGTYYCQQSREDPFTFGQGTKVDIKRTVAAPSVFIFPPSDEQLKSGTASVVCLLNNFYPREAKVQWKVDNALQSGNSQESVTEQDSKDSTYSLSSTLTLSKADYEKHKVYACEVTHQGLSSPVTKSFNRGEC
As to B1, the “MMAE release ratio (%)” value runs as follows: (2h) “A (A < 1)”; (8h) “A (A < 1)”; (1d) “A (A < 1)”; (4d) “A (A < 1)”; (7d) “A (A < 1)”; (time 0) 0%.

B2: ADC-2D (conjugate)
heavy: QVQLQQPGTEVVKPGASVKLSCKASGFTFPLYWMHWVRQRPGRGLEWIGRIIPIFGHTKYNEKFKNKATLTADESSSTAYMELRSLTSDDSAVYYCARGGYYYYPREGFLDYWGQGTSVTVSS[not shown - human IgG1 constant region]
light: DIVMTQSPASLSVSPGERASISCRSSQSVDYSGDSYMNWYQQKPGQSPRLLIYAASDRESGVPDRFSGSGSGTDFTLKISRVEEEDAGTYYCQQSREDPFTFGQGTKVDIKRTVAAPSVFIFPPSDEQLKSGTASVVCLLNNFYPREAKVQWKVDNALQSGNSQESVTEQDSKDSTYSLSSTLTLSKADYEKHKVYACEVTHQGLSSPVTKSFNRGEC
As to B2, the “MMAE release ratio (%)” value is, setting by setting: (2h) “A (A < 1)”; (8h) “A (A < 1)”; (1d) “A (A < 1)”; (4d) “A (A < 1)”; (7d) “A (A < 1)”; (time 0) 0%.
